Measurements from the supplement of paper PMC12217912.
This is one part of the list. The full chains were built here from the parent and the listed change. Values near 0.05 are background.

B1: TEV protease; numbered along this chain (parent)
chain: MGESLFKGPRDYNPISSSICHLTNESDGHTTSLYGIGFGPFIITNKHLFRRNNGTLVVQSLHGVFKVKDTTTLQQHLVDGRDMIIIRMPKDFPPFPQKLKFREPQREERICLVTTNFQTKSMSSMVSDTSCTFPSGDGIFWKHWIQTKDGQCGSPLVSTRDGFIVGIHSASNFTNTNNYFTSVPKNFMELLTNQEAQQWVSGWRLNADSVLWGGHKVFMVKPEEPFQPVKEATQL

Variants of: B1
Assay: raw area under fraction-flipped curve 0-4 h after induction (AUC4h, not background-subtracted), DNA-recorder readout of cleavage of the substrate (dimensionless); higher = more cleavage of the substrate by the protease variant
Settings: temperature: 34 °C; time window: 0-4 h after rhamnose induction
Description: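 In vivo DNA recorder in E. coli TOP10(DE3) ΔrhaA at 34 °C. Each TEVp single-site mutant (parent TEVp 0) is paired with a single-site variant of the 7-mer TEVs (canonical ENLYFQ|S). The substrate sits between flexible linkers in a Bxb1-sfGFP-TEVs-SsrA fusion, so cleavage stabilises Bxb1 and speeds flipping of a recombination array, read by NGS. The value is the raw area under the fraction-flipped curve over 0-4 h after rhamnose induction (AUC4h), with ≥20 reads per time point. It is not background-subtracted; inactive controls average about 0.047.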
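Note: Bxb1 expression induced with 0.2% (w/v) L-rhamnose at OD600 near 0.5, cultures sampled hourly, flipped fraction per protease–substrate barcode pair counted by paired-end Illumina sequencing.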

Variant	area with substrate ENLAFQS	area with substrate ENLCFQS	area with substrate ENLDFQS	area with substrate ENLFFQS	area with substrate ENLHFQS	area with substrate ENLKFQS	area with substrate ENLLFQS	area with substrate ENLNFQS	area with substrate ENLPFQS	area with substrate ENLSFQS	area with substrate ENLVFQS	area with substrate ENLWFQS	area with substrate ENLEFQS	area with substrate ENLGFQS	area with substrate ENLIFQS	area with substrate ENLRFQS	area with substrate ENLTFQS	area with substrate ENLMFQS	area with substrate ENLQFQS
Y34C	0.0634	0.0684	0.0607	0.0746	0.0574	0.106	0.0669	0.0607	0.0658	0.0736	0.0938	0.108							
G37R	0.0467	0.0462	0.0599	0.0585	0.0617	0.069	0.0618	0.0596	0.0654	0.0562	0.0618		0.0615	0.0476	0.0833	0.063	0.0722		
N52S	0.0626			0.081	0.0556	0.0657		0.0622	0.0413	0.0675			0.0678		0.0639	0.0813	0.066		
N52I	0.0592				0.0421			0.0774		0.0552									
K46E	0.0484	0.0723	0.0135	0.06	0.0626	0.0569	0.0542	0.0573	0.0692	0.0261		0.0417	0.0524		0.063		0.0598	0.0536	0.0559
K46R	0.0634		0.0646	0.0754	0.0585	0.0694	0.068	0.0609	0.0583	0.0564		0.0675	0.0668	0.0495		0.0825			0.0641
K46F	0.0515	0.0563	0.0714	0.0593		0.0581	0.0631			0.0518		0.0528	0.0321		0.0634	0.0631			
I42G	0.0391	0.0401	0.0422	0.0419	0.0423	0.0502	0.0519	0.05	0.0521	0.0264	0.0565	0.0468	0.0652		0.0546	0.0451		0.0732	0.0541
I42W	0.0607		0.0529	0.0526	0.0569	0.0566	0.0461	0.0585	0.0545	0.0486	0.0628	0.0554	0.0529	0.0556	0.0635	0.0509		0.0623	
G39S	0.0446		0.0503	0.0443	0.0636	0.0486	0.0455	0.0568	0.0345	0.0605			0.058			0.0447			
G39D	0.0465	0.0499	0.0592	0.0549	0.0542	0.0462		0.0437	0.0398	0.0438		0.0376	0.0427	0.0802	0.0337				
G39K	0.0343	0.041	0.0482	0.0484		0.0495	0.0427	0.0595	0.0456	0.0626	0.036	0.0367	0.045			0.049			
G39V	0.0595	0.0378	0.0458	0.0436	0.0466	0.0485	0.0426	0.0402	0.0391	0.0438	0.043	0.0321	0.041	0.0443	0.0412	0.0433	0.0489	0.0429	0.0476
I36C	0.0717	0.065	0.053	0.0771	0.0508	0.0866		0.0652	0.0593	0.0608	0.0824			0.0695	0.0797	0.0769		0.0714	0.067
F49H	0.0688		0.0627	0.0527	0.0555	0.0591	0.0589	0.0614	0.0677	0.0595		0.0448		0.0671	0.0608	0.0495			
F41N	0.0679	0.0651	0.0641	0.081	0.078	0.0612	0.0647	0.0749	0.0784	0.0641	0.0598		0.0653	0.0828		0.0754		0.0842	0.0425
P40A	0.0706		0.0656	0.0836		0.0935		0.0618	0.0715	0.0892		0.0636	0.0799			0.0794			0.0752
L33V	0.0653			0.0864	0.0613	0.0758	0.0578	0.0794	0.0596	0.0535		0.0634			0.078	0.0828		0.0542	
L48H	0.0694	0.0474	0.0709	0.0558	0.0549	0.0521		0.0567	0.0569	0.0339		0.056	0.0645					0.0673	0.0508
H47A	0.0612	0.0641	0.0574	0.0587	0.0566		0.0685			0.0618	0.0617	0.0543	0.0628						0.0374
T44L	0.0619		0.0598	0.0746	0.0507	0.0372	0.0692	0.0562	0.0543	0.0559		0.0574	0.0657	0.052	0.0537	0.043			
T44Q	0.046		0.0448	0.0312	0.0576	0.0486	0.046	0.0529	0.0335	0.021		0.0447	0.0385	0.0662	0.0469		0.0427	0.0473	
N45S	0.0558	0.0614		0.0653	0.0589	0.0652	0.123		0.0598	0.0573		0.0612	0.053		0.0597			0.0347	
N45Q	0.0562	0.043	0.0625	0.0485	0.0597	0.0612	0.0543	0.0578	0.049	0.0694	0.0385	0.0604	0.0551	0.0634	0.0677	0.0647		0.0712	0.0662
I43V	0.0963	0.0788	0.0523	0.0868	0.0648	0.0723		0.0544	0.0565	0.0655	0.0952			0.063		0.0969		0.0674	
R50L	0.0729		0.0591	0.0946	0.0614	0.0778				0.0663	0.102		0.0603	0.0762		0.0905			
